# Assay results reported in PubChem BioAssay AID588855 (National Center for Advancing Translational Sciences (NCATS), 2011).
# “And” between values parts separate entries of the source, which are not always exact repeats. Equal entries are not always repeated. Among all 410,000 compounds or so, about 5,000 (1.2%) were called active. Inconclusive means that the source gave no clear call. Such entries were picked first, then a sample of the others. Calls follow the shape of the dose curve; as a rule, active = well fitted inhibition curve with a large enough effect; inconclusive = small, poorly fitted or top-dose-only effect; inactive = no such curve, though single readings can be large or run the other way. Potencies beside an inconclusive call are fits to weak or partial responses and may not hold up.
# Assay: qHTS for Inhibitors of TGF-b; also: nearly all actives have a fitted effect of over 65% in size
# Conditions: HepG2 CAGA-GFP TGF-b/SMAD3 reporter, GFP fluorescence, 18 h, TGF-beta stimulated, 500 pg/mL final; series mostly up to 46.1 µM; activity, negative = inhibition: at the top concentration
# Summary of the method: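 Read-out: total well GFP (ex488/em500-530) summed from mean per-cell fluorescence. Cells: HEPG2 CAGA-GFP, 1% FBS DMEM, 18 h at 37 degrees C with 500 pg/mL final TGF-beta. Unstimulated wells served as the full-inhibition control; stimulated DMSO wells = 0%.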
# % is scaled to controls: 0 for no effect and ±100 for the full control effect; potency is read from the fitted curve at half-maximal effect; tags tell the direction and shape of the fitted curve.
Compound,Potency,"activity, negative = inhibition"
Cc1ccc(S(=O)(=O)N2CCCc3cc(NS(=O)(=O)c4ccc(C)c(C)c4)ccc32)cc1,"inconclusive: 0.501 µM [inhibitor, full curve]",
COc1ccc2nc(SCC(=O)NCc3ccc(F)cc3)[nH]c2c1,,inactive: -22.5%
CC(NC(=O)CCCOc1ccc(Cl)cc1)c1ccccc1 (stereo not drawn),"inconclusive: 0.112 µM [inhibitor, full curve, poor fit]",
Cc1cccc(C(=O)NNC(=O)c2cccc(C)c2)c1,,inactive: 11.8%
COc1ccc(Nc2nc(Nc3ccc(OC)cc3OC)nc(N3CCOCC3)n2)c(OC)c1,,inactive: 9.88%
CCCCNc1c(-c2ccc(OC)c(Sc3ccc(OC)cc3)c2)nc2ccccn12,"inconclusive: 11.2 µM [inhibitor, partial curve, poor fit]",
Cc1cc(NCC(=O)Nc2ccc(C)c(S(=O)(=O)N3CCOCC3)c2)ccc1Br,"inconclusive: 35.5 µM [inhibitor, single point]",
CC(C)(C)N1C(=O)[C@H]2[C@@H](c3ccc(Br)cc3)N3C(=O)N(c4ccccc4)C(=O)[C@@]3(C)[C@H]2C1=O,,inactive: -1.04%
Cc1ccccc1NC(=O)CCn1nc(-c2ccccc2)c2ccccc2c1=O,"inconclusive: 5.01 µM [inhibitor, full curve, poor fit]",
CN(CC(=O)N1CCN(Cc2ccccc2)CC1)C(=O)Cc1ccc(Cl)c(Cl)c1,,inactive: -3.35%
C/C(=N\N=C(/N)SC1CC(=O)N(c2ccccc2)C1=O)c1cccs1 (stereo not drawn),,inactive: 12.7%
COc1ccc(N2C(=O)C(CC(=O)Nc3ccccc3)N(Cc3ccccn3)C2=S)cc1 (stereo not drawn),"inconclusive: 1.41 µM [inhibitor, full curve, poor fit]",
CN(C)c1ccc(/C=N/NC(=O)c2ccc(CN3CCOCC3)cc2)cc1Br,"inconclusive: 35.5 µM [inhibitor, partial curve, poor fit]",
Cc1ccc(CN(C)C(=O)C2CCC(=O)N(C3CCCCCC3)C2)cc1 (stereo not drawn),"inconclusive: 14.1 µM [inhibitor, partial curve, poor fit]",
Cc1[nH]nc2oc(=O)c(CCO)c(C)c12,,inactive: -0.741%
CCN(CC)CCOC(=O)c1ccc(NC(=O)c2cc3cc(OC)ccc3oc2=O)cc1,,inactive: 4.02%
C[C@@H]1CCCCO[C@H](CN(C)Cc2ccc(C(F)(F)F)cc2)[C@@H](C)CN([C@H](C)CO)C(=O)c2cc(NS(=O)(=O)c3cn(C)cn3)ccc2O1,,inactive: 7.08%
COc1ccccc1NS(=O)(=O)c1cccc(C(=O)N2CCN(Cc3ccc4c(c3)OCO4)CC2)c1,,inactive: -26.5%
Nc1c(N2CCCCC2)c2ccccc2oc1=O,,inactive: -0.408%
CC(C)Oc1cccc(C(=O)C2CCCN(Cc3cccn3-c3ccccn3)C2)c1 (stereo not drawn),"inconclusive: 22.4 µM [inhibitor, single point]",
C=CCNc1nc(NCCOC)c2sc(-c3ccccc3)cc2n1,"inconclusive: 35.5 µM [inhibitor, single point]",
Cc1ccc(-c2nc3ccccn3c2C=O)cc1,,inactive: -11.2%
CCOC(=O)N1CCc2c(sc3c2C(=O)NC(c2ccc(C(=O)OC)cc2)N3)C1 (stereo not drawn),"inconclusive: 6.31 µM [inhibitor, single point]",

Compound,Potency,"activity, negative = inhibition"
CCOc1ccc(CNC(=O)C2CCN(C(=O)N3CC(CC)Oc4ccc(C)cc43)CC2)cc1OC (stereo not drawn),"inconclusive: 17.8 µM [inhibitor, partial curve, poor fit]",
COc1ccc(OC)c2c(C)cc(N3CCCCCC3)nc12,"inconclusive: 35.5 µM [inhibitor, single point]",
Cc1ccccc1N1CC(c2nc3ccccc3n2Cc2ccc(Br)cc2)CC1=O (stereo not drawn),"inconclusive: 12.6 µM [inhibitor, partial curve, poor fit]",
Cc1cc(Br)ccc1NC(=O)c1c(C)oc2ncnc(N3CCCCC3)c12,,inactive: -22.3%
O=C(NCc1ccccc1)C1=C[C@@H](c2csc3ccccc23)C[C@@H](OCc2ccc(CO)cc2)O1,"inconclusive: 20 µM [inhibitor, single point]",
Cc1[nH]c2ccccc2c1/C=C/c1c[nH]c2ccccc12,"inconclusive: 15.8 µM [inhibitor, single point]",
O=C(c1ccc(-c2ccc([N+](=O)[O-])cc2)o1)N1CCCCCCC1,"inconclusive: 35.5 µM [inhibitor, single point]",
CC1(Cc2ccccc2OC(F)(F)F)C(=O)Nc2cc(-c3ccccc3Cl)ccc21 (stereo not drawn),"inconclusive: 35.5 µM [inhibitor, single point]",
CNC(=O)c1cc(S(=O)(=O)NCc2ccncc2)ccc1OC,,inactive: -1.17%
O=C(CCCN1C(=O)/C(=C/c2ccccc2Cl)SC1=S)NNC(=O)c1ccccc1,"inconclusive: 35.5 µM [inhibitor, single point]",
O=C(OCc1cn([C@H]2CN(Cc3cccs3)[C@@H](c3ccccc3)C[C@@H]2O)nn1)c1ccccc1,"inconclusive: 11.2 µM [inhibitor, single point]",
OCCOCCn1c(C(CO)Nc2nc(-c3ccc(F)cc3)cs2)nc2ccccc21 (stereo not drawn),,inactive: -5.61%
C/C=C1\COC(C(=O)NCCN2CCCC2)(C(F)(F)F)C=C1C=C1CCCCC1 (stereo not drawn),"inconclusive: 35.5 µM [inhibitor, single point] and inconclusive: 25.1 µM [inhibitor, single point]",
O=C(Cn1cnc2c(nnn2Cc2ccc(Cl)cc2)c1=O)NCC1CCCO1 (stereo not drawn),"inconclusive: 0.501 µM [inhibitor, full curve, poor fit]",
CCc1ccc(NC(=O)C2CCCN(c3nnc(C)c4c(C)n(-c5ccccc5)nc34)C2)cc1 (stereo not drawn),,inactive: -0.622%
COc1cc(Cl)cc(NC(=O)CCN2CCN(C)CC2)c1,"inconclusive: 0.631 µM [inhibitor, full curve, poor fit]",
COc1ccc(-c2csc(Nc3cc(C)ccn3)n2)cc1OC,"inconclusive: 15.8 µM [inhibitor, single point]",
C/C(Cn1nnc([N+](=O)[O-])n1)=N\NC(=O)c1ccc(O)cc1,active: 11.2 µM,
O=C(c1ccc2nc(-c3ccco3)c(-c3ccco3)nc2c1)N1CCN(c2ccccc2)CC1,,inactive: -17.3%
Clc1ccccc1CNCC1CCCO1 (stereo not drawn),,inactive: 4.78%
CSc1ccc(/C=C(\NC(=O)c2ccc(C)cc2)C(=O)NN)cc1,,inactive: -10.2%
COc1ccc2oc(-c3ccc(NC(=O)c4ccc(Cl)cc4Cl)cc3)nc2c1,"inconclusive: 20 µM [inhibitor, single point]",
O=C1/C(=C/c2ccccc2Cl)SC(=S)N1CCCC(=O)N(CCO)c1ccccc1,"inconclusive: 25.1 µM [inhibitor, single point]",

Compound,Potency,"activity, negative = inhibition"
Oc1ccc(C[C@H]2CNC(=S)N2CC2CCCN2C[C@H](Cc2ccc(O)cc2)N2C[C@H](Cc3ccccc3)N(CC3CCCCCC3)C2=S)cc1 (stereo partly drawn),active: 7.94 µM,
CCOc1ccc(/C=C/c2nc(C#N)c(N3CCC(C)CC3)o2)cc1,"inconclusive: 22.4 µM [inhibitor, single point]",
COc1ccc(C(=O)Sc2ccc(Cl)cc2)cc1OC,,inactive: 31%
CCc1ccc(Sc2cc(C(=O)NCCCN3CCC(C)CC3)c3ccccc3n2)cc1,"inconclusive: 35.5 µM [inhibitor, single point]",
Cc1c(C=O)c2ccccn2c1C(=O)c1ccccc1,"inconclusive: 35.5 µM [inhibitor, single point]",
Cc1ccccc1OCCn1cc(/C(N)=N/O)c2ccccc21,"inconclusive: 15.8 µM [inhibitor, single point]",
CCOc1ccc(-c2n[nH]c(C)c2Oc2ccc(OC)cc2)c(O)c1,"inconclusive: 15.8 µM [inhibitor, partial curve, poor fit]",
CC(Nc1ccccc1)c1cc(Cl)ccc1O (stereo not drawn),"inconclusive: 35.5 µM [inhibitor, single point]",
CCOc1ccc(N(CC(=O)NCCOc2ccccc2OC)S(=O)(=O)c2ccccc2)cc1,"inconclusive: 22.4 µM [inhibitor, single point]",
Fc1ccc2cnc(-c3ccccc3)c(-c3cc(C(F)(F)F)cc(C(F)(F)F)c3)c2c1,"inconclusive: 22.4 µM [inhibitor, single point]",
COc1cc2c(cc1OC)C(c1ccccc1[N+](=O)[O-])=NCC2,,inactive: -22.3%
COc1cc(N=c2ssnc2Cl)cc(OC)c1,"inconclusive: 12.6 µM [inhibitor, single point]",
O=C(OC(C(=O)NC1CCCCC1)c1ccccc1F)c1ccco1 (stereo not drawn),,inactive: -2.18%
CCCSc1ccc([C@H]2N[C@@](C)(C(=O)OC)[C@H]3C(=O)N(C)C(=O)[C@@H]23)cc1,,inactive: -7.76%
COc1cccc([C@@H]2Oc3ccc(OC)cc3C(=O)[C@H]2O)c1,"inconclusive: 35.5 µM [inhibitor, single point]",
Cc1ccc(Cl)cc1NC(=O)CC1Sc2ccccc2NC1=O (stereo not drawn),"inconclusive: 1.12 µM [inhibitor, full curve]",
C[C@@H]1CN([C@H](C)CO)S(=O)(=O)c2ccc(C#CC3CCCC3)cc2O[C@H]1CN(C)C(=O)Cc1ccccc1,"inconclusive: 35.5 µM [inhibitor, single point]",
CC1=C(C(=O)NCc2ccc(Cl)cc2)C2(CCC(C)CC2)OC1=O (stereo not drawn),"inconclusive: 10 µM [inhibitor, partial curve, poor fit]",
Cc1cccc(Nc2ccccc2C(=O)OCC(=O)NCc2ccco2)c1C,,inactive: 22%
NC1=NC(c2cc(F)cc(F)c2)n2c(nc3ccccc32)N1 (stereo not drawn),"inconclusive: 7.94 µM [inhibitor, partial curve, poor fit]",
CC(=O)Nc1ccc(/C=C/c2nc3ccccc3s2)cc1,,inactive: -21%
Cc1ccc(C)n1-c1nnc(N2CCCC(C(=O)NCc3cccc(Br)c3)C2)s1 (stereo not drawn),"inconclusive: 11.2 µM [inhibitor, single point]",
